SMILES strings stand for the structures. Hit rate of the full screen: of about 52,000 compounds, about 1,700 (3.3%) were called active. Cut-off read from the data, not from the text of the source: active = survival mostly below about 52% (no sharp cut-off); inactive = mostly above about 56%. This is one part of the list.

This test has as its system Wild type. The experiment in a line: growth inhibition of S. aureus wild type versus tarO mutant, primary screen, teichoic acid synthesis inhibitors, RN4220, OD600 (AID 463173). The settings on record: S. aureus RN4220 wild type/DeltatarO growth, OD600, 18 h, stronger effect = lower value, screened at 18.75 µg/mL (by protocol).
Take `COC(=O)c1sc2cccc(F)c2c1S(=O)(=O)N1CCN(c2ccc(F)cc2)CC1`: the survival is inactive: 71%.

As for `Cc1nc2nc(SCC(=O)NCCc3ccc(Cl)cc3)nn2c(C)c1Cc1ccccc1`, the survival was inactive: 56%.

In the case of `CCCSc1ncc(Cl)c(C(=O)Nc2nc3ccc(OCC)cc3s2)n1`, the survival was inactive: 92%.

Take `Cc1ccc(CNC(=O)c2ccc3c(=O)n(-c4ccccc4)c(=O)[nH]c3c2)cc1`: the survival is inactive: 76%.

For `COC(=O)C(CCSC)NC(=O)c1cc2c(n(-c3ccc(C)cc3)c1=O)CC(C)(C)CC2=O` (stereo not given), the survival is inactive: 77%.

On to `CC(=O)c1cc(C(=O)Nc2cc(C)cc(C)c2)c2ccccn12`, for which the survival is inactive: 64%.

As for `Cc1ccc2c(c1)cc1c(=O)n(CC(=O)NC3CCCCC3)nc(C)n12`, the survival is inactive: 91%.

Consider `CCC(C)(C)n1nnnc1CN1CCC(NC(=O)COC)CC1`, for which the survival was inactive: 111%.

For the molecule `CCc1ccccc1NC(=O)CSc1nc(-c2ccccc2OC)nc2c1Cc1c(CO)cnc(C)c1O2`, the survival is inactive: 79%.

As for `CCOC(=O)CC1c2cc(OCC)c(OCC)cc2CCN1C(=O)Nc1cccc(Cl)c1` (stereo not given), the survival was inactive: 63%.

In the case of `Cc1cccn2c(=O)c3cc(C(=O)NCc4ccccc4)c(=N)n(CCOCCO)c3nc12`, the survival is inactive: 79%.

Turning to `CCOC(=O)c1ccc(N=C2NC(=O)/C(=C/c3ccc(N4CCOCC4)cc3)S2)cc1`, the survival is inactive: 107%.

With `Cc1ccc(NC(=O)CSc2nc(=O)n(CCCN(C)C)c3c2CCC3)cc1F`, the survival is inactive: 70%.

For `CCCc1ccc(S(=O)(=O)N2CCC(Oc3ccc(-n4cnnn4)cc3)CC2)cc1`, the survival is inactive: 87%.

In the case of `CNC(=O)c1ccc(Nc2nnc(-c3ccc(C)c(S(=O)(=O)N(C)C)c3)c3ccccc23)cc1`, the survival is inactive: 68%.

On to `CCOC(=O)c1[nH]c(C)c(CCC(=O)NCc2ccccc2Cl)c1C`, for which the survival is inactive: 90%.

Take `O=C(NCc1ccccc1)c1ccc2c(c1)CCN2S(=O)(=O)c1ccccc1`: the survival is inactive: 82%.

In the case of `CCC(=O)Nc1ccc(-c2nnc3c4ccccc4c(C)nn23)cc1`, the survival is inactive: 78%.

With `COc1ccc(CCNC(=O)CCCn2c(=O)c3ccccc3n(Cc3c(C)cc(C)cc3C)c2=O)cc1OC`, the survival is inactive: 91%.

Take `CCC(=O)N1c2ccc(S(=O)(=O)N3CCC(C)CC3)cc2CC1C` (stereo not given): the survival was inactive: 69%.

On to `CCCCC(CC)CNC(=O)C1CCC(CNS(=O)(=O)c2cccc3nsnc23)CC1` (stereo not given), for which the survival was inactive: 86%.

Consider `Cc1cc(C)cc(OCCCn2c(CCNC(=O)C3CCCCC3)nc3ccccc32)c1`, for which the survival was active: 27%.

Regarding `O=C(CC1C(=O)OCCN1Cc1ccccc1)Nc1ccc(F)cc1` (stereo not given), the survival was inactive: 139%.

Consider `Cc1ccc(C)c(NC(=O)Cn2cc(C(=O)c3ccc(Cl)cc3)c(=O)c3ccc(C)nc32)c1`, for which the survival was inactive: 83%.

As for `Cc1cc(C)cc(N2CC34C=CC(O3)C(C(=O)OCC(=O)NC3CCCC3)C4C2=O)c1` (stereo not given), the survival was inactive: 108%.

On to `Cc1cccc(C)c1-n1ncc(C(=O)N2CCN(c3ccccn3)CC2)c1C1CCN(C(=O)OC(C)(C)C)CC1`, for which the survival is inactive: 55%.

Consider `N#Cc1ccc(CSc2nc3c(c(=O)[nH]2)CCC3)cc1`, for which the survival was inactive: 94%.

Turning to `COc1cc(NC(=O)CSc2nc(-c3ccc(C)cc3)nc3c2Cc2ccccc2O3)cc(OC)c1`, the survival is inactive: 98%.

With `Cc1ccccc1Cn1cnc2ccccc21`, the survival was inactive: 116%.

Take `CC1CCN(S(=O)(=O)c2ccc(C(=O)Nc3sc4c(c3C(N)=O)CC(C)(C)NC4(C)C)cc2)CC1`: the survival was inactive: 83%.

As to `CC(C)(C)OC(=O)N1C(C(=O)O)CSC1c1cccc(Br)c1` (stereo not given), the survival was inactive: 104%.

In the case of `Cc1cccc(-c2nc3c4ccccc4nc(NCc4ccc(Cl)cc4)n3n2)c1`, the survival was inactive: 47%.

As to `CC(=O)c1ccc(NC(=O)CSc2cn(CC(=O)N3CCCCCC3)c3ccccc23)cc1`, the survival was inactive: 108%.

For `CCc1ccc2oc(-c3cc(NC(=O)C(C)C)cc(C)c3O)nc2c1`, the survival was inactive: 73%.

For `COc1ccc(-c2cc(C(=O)NCc3ccc(F)cc3)c3c(-c4ccc(F)cc4)[nH]nc3n2)cc1OC`, the survival was inactive: 71%.

In the case of `COc1ccc(NC(=O)CSc2oc(-c3ccco3)nc2S(=O)(=O)c2ccc(Br)cc2)c(OC)c1`, the survival was inactive: 84%.

As for `CC(C)Cn1c(=O)c2sccc2n2c(CCCC(=O)NCc3ccccc3Cl)nnc12`, the survival is inactive: 87%.

As to `C(=N\N1CCN(c2ccccn2)CC1)/c1ccco1`, the survival is inactive: 93%.

On to `C=C(C)C1CC=C(C)/C(=N/NC(=O)c2ccncc2)C1` (stereo not given), for which the survival is inactive: 110%.

Regarding `COc1cccc(CNC(=O)C2CCN(S(=O)(=O)c3cn(C)cn3)CC2)c1`, the survival was inactive: 68%.

`CC(=O)N1c2ccc(S(=O)(=O)N3CCCCCC3)cc2CC1C(=O)NCc1ccc(Cl)cc1` (stereo not given): the survival was inactive: 71%.

In the case of `CCOC(=O)N1CCC(NC(=O)c2cnn(-c3cccc(Cl)c3C)c2C2CCN(C(=O)OC(C)(C)C)CC2)CC1`, the survival was active: -3%.

Consider `O=C(Cn1cc(SCc2ccc(C(F)(F)F)cc2)c2ccccc21)N1CCCC1`, for which the survival was inactive: 70%.

Take `CCCOc1ccc(-c2nonc2NC(=O)c2oc3ccc(C)cc3c2C)cc1OCCC`: the survival is inactive: 89%.

Take `O=C(Nc1ccccc1Cl)c1cccs1`: the survival is inactive: 100%.

Consider `COc1cccc(CN2CCc3nc(N4CCN(c5ncccn5)CC4)ncc3C2)c1`, for which the survival is inactive: 72%.

`COc1ccc(CCNc2nc(C)nc3c2nnn3Cc2ccccc2)cc1OC`: the survival is inactive: 114%.

With `CCc1sc(Nc2cccc(Cl)c2C)nc1-c1cc2cccc(OC)c2oc1=O`, the survival was inactive: 73%.

As to `CN1CCN(c2nc3c(S(=O)(=O)c4ccc(Br)cc4)nnn3c3ccsc23)CC1`, the survival is inactive: 83%.

As for `Oc1ccc(Cl)cc1C1=Nc2ccccc2N=C(c2cccc(Br)c2)C1`, the survival is inactive: 137%.

Turning to `COc1ccc(OC)c(NC(=O)c2cc(CN3CCCC3)on2)c1`, the survival was inactive: 73%.

In the case of `O=C(CC1C(=O)OCCN1Cc1ccccc1)Nc1cccc(C(F)(F)F)c1` (stereo not given), the survival was inactive: 81%.

In the case of `CC(=O)NC(C)C1COc2ccccc2O1` (stereo not given), the survival was inactive: 107%.

Turning to `CCOC(=O)N1CCN(c2cc3cc(OC)ccc3oc2=O)CC1`, the survival is inactive: 112%.

Consider `O=C(C1CCC(Cn2c(=O)c3sccc3n(Cc3cccc(F)c3)c2=O)CC1)N1CCCCC1` (stereo not given), for which the survival is inactive: 101%.

`COc1ccc(NC(=O)c2c(C)oc3ccc(O)c(CN4CCC(C)CC4)c23)cc1`: the survival is inactive: 92%.

On to `COc1ccccc1Nc1nn2c(=O)c3ccc(C(=O)NCc4ccc(F)cc4)cc3nc2s1`, for which the survival was inactive: 71%.

As to `O=C(NCCc1ccccc1)C(=O)NCC(c1cccnc1)N1CCN(c2ccccc2F)CC1` (stereo not given), the survival is inactive: 86%.

As for `CN(C)c1ccc(C(=O)NC2CCSC2=O)cc1` (stereo not given), the survival was inactive: 110%.

Consider `Cc1ccc(CNC(=O)C(=O)NCC(c2ccco2)S(=O)(=O)c2cccs2)cc1` (stereo not given), for which the survival is inactive: 75%.

Consider `CCN1CCN(C(c2ccc(F)cc2)c2c(O)cc(C)n(CCOC)c2=O)CC1` (stereo not given), for which the survival is inactive: 71%.

Consider `COc1ccc(CCNC(=O)c2ccc(CS(=O)(=O)Cc3cccc(C)c3)o2)cc1OC`, for which the survival was inactive: 77%.

In the case of `CC(C)CCNC(=O)C1CCN(C(=O)N2CCOc3ccc(Cl)cc32)CC1`, the survival was inactive: 82%.

In the case of `Cc1nonc1OCCn1nnc(N)n1`, the survival is inactive: 108%.

Regarding `COc1ccc(C(=O)Nc2ccc(-c3cc4ccccc4oc3=O)c(C)c2)cc1OC`, the survival was inactive: 78%.

For `CC(C)CNC(=O)C1CCCN1C(=O)Nc1ccccc1` (stereo not given), the survival was inactive: 106%.

Turning to `CCc1cccc2c(-c3ccc(F)cc3)nc(SCC(=O)Nc3ccccc3)nc12`, the survival is inactive: 97%.

As for `CC1(C)CC(NC(=O)Cc2ccc(Cl)cc2)CC(C)(C)N1`, the survival was inactive: 111%.

Turning to `Cc1cc(=O)oc2ccccc12`, the survival was inactive: 113%.

Consider `CSc1cccc(NC(=O)N2CCN(c3cc(-c4noc(C)n4)ccc3C)CC2)c1`, for which the survival is inactive: 74%.

`CC(C)NC(=O)C(N)Cc1c[nH]c2ccccc12` (stereo not given): the survival was inactive: 116%.

In the case of `COc1ccc(-c2n[nH]c3c2C(c2ccc(O)cc2)N(c2ccc(Br)cc2)C3=O)cc1` (stereo not given), the survival is active: 11%.

Take `CCN1CCN(c2ncnc3c2cnn3-c2ccc(C)cc2)CC1`: the survival is inactive: 75%.

Take `C=C(C)CSc1nc2sc3c(c2c(=O)n1-c1ccccc1)CCC(C)C3` (stereo not given): the survival is inactive: 67%.

For `CCOC(=O)c1c(C)[nH]c(C)c1S(=O)(=O)N1CCCC(C(=O)Nc2ccc(F)cc2F)C1` (stereo not given), the survival was inactive: 63%.

Regarding `O=C(NC1CCCCCC1)c1ccc2c(c1)sc1nc(-c3ccccc3)cn12`, the survival was inactive: 68%.

For the molecule `COc1cc(C2CC(=O)N(c3ccccc3)C3=C2C(=O)OC3)cc(OC)c1OC` (stereo not given), the survival was inactive: 69%.

For `CCOc1ccc(NC(=O)CSc2cn(CC(=O)N3CCCCCC3)c3ccccc23)cc1`, the survival was inactive: 96%.

On to `COc1ccc(CNC(=O)CC(c2ccc(OC)c(OC)c2)N2Cc3ccccc3C2=O)cc1` (stereo not given), for which the survival was inactive: 79%.

With `CCOc1ccc(NC(=O)CSC2=Nc3ccccc3C3=NC(CC(=O)NCc4ccco4)C(=O)N23)cc1` (stereo not given), the survival was inactive: 68%.

For `Cn1c(CNc2cccc(Cl)c2)nnc1SCC(=O)OC1CCCCC1`, the survival is inactive: 111%.

`Cc1cc2ccccc2n1CCNC(=O)c1cccc(Cl)c1`: the survival was inactive: 76%.

In the case of `COc1ccccc1CNc1ccc(-c2nc(-c3ccncc3)no2)cc1[N+](=O)[O-]`, the survival was inactive: 83%.

For `COc1ccc(/C=N/N=C2/NC(=O)/C(=C(/C)c3nonc3C)S2)cc1OC`, the survival is inactive: 102%.

Take `OCC(O)CN1CCc2ccccc21` (stereo not given): the survival was inactive: 105%.

On to `CC(C)c1ccc(NC(=O)c2cc(S(=O)(=O)NCc3ccccc3Cl)ccc2F)cc1`, for which the survival was inactive: 101%.

Regarding `COc1ccc(C)cc1NC(=O)Cn1c(=O)ccc2cc(S(=O)(=O)N3CCCC3)ccc21`, the survival is inactive: 68%.

For `Cc1ccc(N(CC(=O)Nc2ccc(C)c(F)c2)S(=O)(=O)c2c(C)n[nH]c2C)cc1`, the survival was inactive: 82%.

For `CCCn1c(C(=O)OCC)cc2sccc21`, the survival was inactive: 86%.

In the case of `N#Cc1c[nH]n2c(NC3CCCC3)c(-c3cccc(Cl)c3)nc12`, the survival was inactive: 66%.

Values taken from PubChem BioAssay AID463173 (ICCB-Longwood Screening Facility, Harvard Medical School, 2010).
